# In PMC4336329 (PLoS ONE, 2015):
# Screen size: about 310,000 compounds; about 2,200 (0.71%) showed an effect of 50% or more. Effects have a minus sign here. The list shows a part of the results.
# Target: human ether-à-go-go-related gene (hERG) potassium channel (human, UniProt Q12809)
# Test: primary screen, population patch clamp on CHO cells stably expressing hERG
# Chain of human ether-à-go-go-related gene (hERG) potassium channel (Q12809 whole entry, looked up): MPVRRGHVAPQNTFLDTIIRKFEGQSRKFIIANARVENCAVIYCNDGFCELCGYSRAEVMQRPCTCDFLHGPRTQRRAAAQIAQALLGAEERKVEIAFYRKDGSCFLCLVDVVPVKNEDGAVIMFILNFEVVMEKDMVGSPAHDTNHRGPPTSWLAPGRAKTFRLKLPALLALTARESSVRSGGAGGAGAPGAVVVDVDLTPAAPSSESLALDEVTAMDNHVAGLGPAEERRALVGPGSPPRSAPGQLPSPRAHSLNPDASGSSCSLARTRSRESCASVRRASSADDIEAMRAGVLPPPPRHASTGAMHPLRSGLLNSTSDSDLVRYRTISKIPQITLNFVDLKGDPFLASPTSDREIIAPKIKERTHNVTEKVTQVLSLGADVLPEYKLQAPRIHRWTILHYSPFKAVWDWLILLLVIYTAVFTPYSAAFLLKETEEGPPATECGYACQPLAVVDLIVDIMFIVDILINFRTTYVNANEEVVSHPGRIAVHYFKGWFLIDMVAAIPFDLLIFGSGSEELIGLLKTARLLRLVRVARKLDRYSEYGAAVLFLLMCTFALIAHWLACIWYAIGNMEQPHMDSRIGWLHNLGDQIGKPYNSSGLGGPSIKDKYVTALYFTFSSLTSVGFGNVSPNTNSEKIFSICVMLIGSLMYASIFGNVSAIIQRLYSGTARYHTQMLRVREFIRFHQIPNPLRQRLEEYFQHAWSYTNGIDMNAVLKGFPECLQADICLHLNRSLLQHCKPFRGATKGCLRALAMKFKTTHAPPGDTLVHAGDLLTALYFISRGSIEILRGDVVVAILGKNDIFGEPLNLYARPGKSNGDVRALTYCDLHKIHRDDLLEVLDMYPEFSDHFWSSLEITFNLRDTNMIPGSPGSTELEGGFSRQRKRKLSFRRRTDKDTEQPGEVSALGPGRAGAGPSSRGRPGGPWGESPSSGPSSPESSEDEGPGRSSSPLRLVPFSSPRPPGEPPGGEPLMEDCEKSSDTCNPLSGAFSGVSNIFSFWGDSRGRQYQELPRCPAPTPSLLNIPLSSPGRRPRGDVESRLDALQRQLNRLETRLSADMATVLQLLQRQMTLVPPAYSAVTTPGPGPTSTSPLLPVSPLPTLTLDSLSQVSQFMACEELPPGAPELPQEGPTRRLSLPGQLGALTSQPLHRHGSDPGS
row,Structure (SMILES),"hERG current change (%, negative = inhibition) at 1uM"
1,CCOC(=O)c1ccc(NCc2nc3ccccc3[nH]2)cc1,-0.845%
2,COc1ccc(C2CC(=O)Oc3c(C(CCN4CCCC(C)C4)c4ccc(N(C)C)cc4)c(OC)cc(OC)c32)cc1 (stereo not shown),-1.36%
3,OC[C@H]1OC(Nc2ccc(N=Nc3ccccc3)cc2)[C@@H](O)[C@@H](O)[C@@H]1O (stereo partly shown),5.2%
4,O=C(Nc1ccccn1)c1c(O)c2cccc3c2n(c1=O)CCC3,7.78%
5,O=C(COC(=O)c1ccccc1NCc1ccco1)Nc1ccc2c(c1)OCO2,3.29%
6,Nc1nc(-n2cnnc2)nn1-c1ccccc1,7.69%
7,CCOCCCNC(=O)CN1C(=O)CSc2ccccc21,1.4%
8,CCOC(=O)C1CCN(C(=O)CSc2ccc(Cl)cc2)CC1,-3.43%
9,CCOc1ccc(N(CC(=O)Nc2cc(Cl)ccc2C)S(C)(=O)=O)cc1,4.48%
10,Cc1cccc(N2CCN(S(=O)(=O)c3ccc4c(c3)n(C)c(=O)c(=O)n4C)CC2C)c1 (stereo not shown),4.72%
11,CCCCN1C(Nc2ccccc2)=NC[C@@H]1C,16.3%
12,CCO[C@@H]1OC(C(=O)N2CCOCC2)=C[C@H](C2CC2)[C@H]1CCCO,8.93%
13,CCOC(=O)c1c(Cc2cccc(Cl)c2)c[nH]c1C,7.04%
14,C=C(C)c1cccc(C(C)(C)NC(=O)NCc2ccc(OC)cc2)c1,9.96%
15,COc1ccc(CC(=O)N2N=C(C)CC2(O)C(F)(F)F)cc1 (stereo not shown),19.6%
16,CCOC(=O)N1CCC(NC(=O)CS(=O)(=O)Cc2nc(-c3cccc(OC)c3)oc2C)CC1,-46.9%
17,O=C(Cn1nnc2ccccc2c1=O)NC1CCCCC1,16.8%
18,O=C(NC(=S)NC1CCCC1)c1ccccc1Br,19.7%
19,COCCNC(=O)CC(=O)N/N=C/c1ccc(C(=O)OC)cc1,18.8%
20,COC(=O)C1=C(c2ccc(Cl)c(C(F)(F)F)c2)C[C@@H]2CC[C@H]1N2C(=O)NCCOc1ccc(OC)cc1,14.3%
21,COc1ccc(Nc2nccc3c2nnn3C)cc1,14%
22,Cc1cccc2cc(COC(=O)C(C)C)c(=O)[nH]c12,-23.5%

row,Structure (SMILES),"hERG current change (%, negative = inhibition) at 1uM"
1,O=S(=O)(c1ccc(Cl)cc1)N1CCN=C1SCc1cccc(Cl)c1,-0.0895%
2,O=C(Nc1nnc(COc2ccc(Cl)cc2)s1)c1ccco1,10.6%
3,CC(C)C[C@H]1C(=O)N2CCCC2[C@]2(O)O[C@](NC(=O)[C@@H]3C=C4c5cccc6[nH]cc(c56)CC4N(C)C3)(C(C)C)C(=O)N12 (stereo partly shown),9.16%
4,COc1ccc(OCc2cc(C(=O)NCCc3ccccc3)no2)c(Cl)c1,8.23%
5,Cl.O=C(c1cccc(F)c1)N1CCC(O)(c2cccnc2)CC1,18.7%
6,CSCCC1C(=O)OC2(C)CC(C)(C)NC(=S)N12 (stereo not shown),-4.56%
7,CC1CC(C)(C)NC(C)c2ccccc21.Cl (stereo not shown),13.6%
8,O=C(CSc1ccccc1)Nc1ccc(N2CCOCC2)c(F)c1,6.12%
9,COCCCN(C(=O)C(C)Oc1ccc(Br)cc1)c1c(N)n(Cc2ccccc2)c(=O)[nH]c1=O (stereo not shown),27%
10,CC(=O)O[C@@H]1/C=C/[C@](C)(O)C[C@@H](C)C/C=C/[C@H]2[C@@H]3O[C@]3(C)[C@@H](C)[C@H]3[C@H](Cc4ccccc4)NC(=O)[C@@]312,14.4%
11,Cc1ccc(C(=O)Oc2ccc(C(=O)COC(=O)c3cnccn3)cc2)cc1,-2.44%
12,CCOC(=O)C1(c2ccccc2)CCN(CC(=O)Nc2cccc3ccccc23)CC1,9.92%
13,COc1ccccc1OCC(=O)N(Cc1nnc(-c2ccccc2Cl)o1)C1CC1,-8.53%
14,COc1cc(/C=N/NC(=O)Cc2ccccc2)cc([N+](=O)[O-])c1O,12.3%
15,O=C(CSc1ccccc1)NCc1cccnc1,7.54%
16,COCCNC(=O)Cn1ncc2ccsc2c1=O,8.96%
17,CCOc1ccccc1NC(=O)N1CCC(C(=O)c2ccc(F)cc2)CC1,9.5%
18,COc1nc2ccc(C)cc2cc1-c1noc(-c2cccnc2)n1,13.9%
19,O=C(OCC(=O)N1CCN(C(=O)c2ccco2)CC1)c1cc(-c2ccc(Cl)c(Cl)c2Cl)nc2ccccc12,9.57%
20,CCOC(=O)C1CCN(C2CCN(C(=O)c3oc4c(C)c(C)ccc4c3C)CC2)CC1,-15.6%
21,O=C(CCc1nc2ccccc2c(=O)[nH]1)NNC(=O)c1cccc(Cl)c1,4.12%
22,Cc1[nH]c(=O)[nH]c(=O)c1S(=O)(=O)N1CCCC(C(=O)N2CCC(Cc3ccccc3)CC2)C1 (stereo not shown),20.5%

row,Structure (SMILES),"hERG current change (%, negative = inhibition) at 1uM"
1,CC(=C/c1ccccc1)/C=N/Nc1nc(N2CCOCC2)nc(N2CCOCC2)n1,6.89%
2,Cc1ccc(C2CC(c3ccccc3)=NN2C(=O)CSc2nnc(-c3ccc(Cl)cc3)o2)o1 (stereo not shown),8.78%
3,Cn1cnnc1SCc1cccc(Br)c1,8.01%
4,Cc1cnc(NC(=O)CCCSc2nc3ccccc3s2)s1,5.03%
5,CCn1ccnc1CN(C)C(=O)c1cc(COc2c(F)cccc2F)on1,10.1%
6,Cc1cc(=O)oc2cc(OCC(=O)N3CCN(c4ccccc4)CC3)ccc12,-2.58%
7,COC(=O)C1=C(c2ccc(OC)c(OC)c2)C[C@@H]2CC[C@H]1N2C(=O)NCCCOC(C)C,12.5%
8,Nc1nnc(SCc2ccc(Cl)cc2)s1,6.23%
9,COc1ccccc1C(=O)COC(=O)c1cc(=O)[nH]c2ccccc12,5.36%
10,COc1ccc(-n2c(=O)[nH]c3cc(C(=O)NCCc4ccc(Cl)cc4)ccc3c2=O)cc1OC,10.6%
11,Nc1ccc(C(=O)Nc2ccc(NC(=O)c3ccco3)c(O)c2)cc1,13.5%
12,CCCCN(CC)CCNc1c(N2CCN(C(=O)OCC)CC2)c(=O)c1=O,10.5%
13,CCN1N=C(c2cc(Cl)sc2Cl)CSC1=O,7.73%
14,CN(Cc1cccc(F)c1)C(=O)c1cc(=O)[nH]c2ccccc12,11.2%
15,O=C(Cn1c(=O)oc2cc(S(=O)(=O)N3CCCC3)ccc21)N1CCN(c2ccccn2)CC1,8.69%
16,O=c1cc(-c2ccc(Cl)cc2)nc(N2CCN(c3ccccc3)CC2)[nH]1,13.4%
17,COc1ccc2ccccc2c1CNc1nnnn1C,7.13%
18,Cc1ccc(S(=O)(=O)n2cnc3ccccc32)cc1[N+](=O)[O-],15%
19,O=C(N=Nc1c(O)n(Cc2ccccc2)c2ccccc12)c1ccc(O)cc1,9.07%
20,CCN(CC)N=Nc1ccc(S(N)(=O)=O)cc1,20.2%
21,COCCCNC(=O)c1nc2ccccc2c(=O)n1NC(=O)Nc1c(Cl)cccc1Cl,13.8%
22,N#Cc1c(/N=C/c2cc3ccccc3s2)sc2c1CCC2,15.2%

row,Structure (SMILES),"hERG current change (%, negative = inhibition) at 1uM"
1,COc1cc(OC)nc(-n2ncc(Br)c(Br)c2=O)n1,2.19%
2,O=C(Nc1cccc(S(=O)(=O)NCc2ccco2)c1)c1cc(-c2ccccc2)nc2ccccc12,5.14%
3,O=C(Nc1ccc(Cl)cc1)OCc1cn(-c2ccccc2)nn1,8.57%
4,CCCCOC(=O)c1ccc(NC(=O)c2c(O)[nH]c(=O)[nH]c2=O)cc1,15.2%
5,COC(=O)c1c(CSc2cccc(C)c2)noc1C(=O)NCc1ccco1,11.8%
6,Cc1cccc(-n2ncc3c(N(C)Cc4ccccc4)ncnc32)c1,11.4%
7,N#Cc1c(C(F)(F)F)cc(-c2ccccc2)nc1SCc1nc(N)nc(N2CCOCC2)n1,1.9%
8,CC1(C)CC(=O)CC(C)(C)N1OC(=O)c1ccncc1,4.95%
9,O=C1N/C(=N\N=C\c2cccs2)SC1Cc1cccc(Cl)c1 (stereo not shown),6.94%
10,CCn1ccnc1CN(C)C(=O)c1cc(COc2ccc(Cl)cc2OC)on1,9.73%
11,O=C(N/N=C/c1ccc2c(c1)OCO2)c1sc2cc(Cl)ccc2c1Cl,1.99%
12,Cc1ccccc1N1CCN(C2CCCN(C(=O)CN3CCCC3=O)C2)CC1 (stereo not shown),13%
13,Cc1ccc(N/N=C(\Cc2nc3ccccc3[nH]2)c2ccccc2)cc1,-0.0659%
14,CCCCSc1nnc2[nH]c(=O)cc(N)n12,-7.07%
15,Cc1ccnc2nc(C(=O)NCCc3ccc(F)cc3)nn12,14.8%
16,COc1ccc(C)cc1NC(=O)C(OC(=O)c1ccc([N+](=O)[O-])o1)c1ccccc1 (stereo not shown),18.6%
17,Cc1ccc(-c2nn(-c3cc(Cl)ccc3[N+](=O)[O-])c(=O)c3ccccc23)cc1,-13.4%
18,COC(=O)C1=C(C(=O)OC)SC2(S1)C(C(=O)OC)=C(C(=O)OC)SC1=C2c2cccc(C)c2NC1(C)C,-79.1%
19,CCCN1CCN(CCCNC(=O)Cn2nc(-c3ccc(C)cc3)ccc2=O)CC1,-4.49%
